In PubChem BioAssay AID2675 (National Center for Advancing Translational Sciences (NCATS), 2010):
The campaign covered roughly 280,000 compounds. About 100 (0.036%) were called active. Inconclusive means that the source gave no clear call. Such entries were picked first, then a sample of the others. The call rests on the fitted dose curve; in most records, active means well fitted inhibition curve with a large enough effect in the signal ratio, with a control signal flat (not every such curve was filed as active); inconclusive means small, poorly fitted or top-dose-only effect, or effect the other way, or a change in a side signal; inactive means no such curve, though single readings can be large or run the other way; the % refers to the signal ratio. Potencies of inconclusive entries are doubtful fits and often do not repeat. A note “side channel” means that the fit belongs to a control or component signal, not to the main read-out.

The compounds below were run against Muscleblind-like protein 1 (Homo sapiens) (UniProt Q9NR56) (assay: qHTS Assay for Inhibitors of MBNL1-poly(CUG) RNA binding). Conditions: TR-FRET MBNL1-His/biotin-(CUG)12 binding, 665/545 ratio; series mostly up to 57.5 µM.
Procedure, shortened: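 TR-FRET between His-tagged MBNL1 and biotin-(CUG)12 RNA, detected with Tb anti-His antibody (0.055 ng/ul) and streptavidin-XL665 (5 nM), 60 min at room temperature. Compounds titrated 92 nM to 58 uM; 665/545 nm ratio normalized to buffer and complex controls.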
Potency means the concentration at half of the fitted maximal effect; tags describe the fitted curve by direction and shape or compound fluorescence and quenching.

UniProt Q9NR56, sequence (Q9NR56 whole entry, looked up): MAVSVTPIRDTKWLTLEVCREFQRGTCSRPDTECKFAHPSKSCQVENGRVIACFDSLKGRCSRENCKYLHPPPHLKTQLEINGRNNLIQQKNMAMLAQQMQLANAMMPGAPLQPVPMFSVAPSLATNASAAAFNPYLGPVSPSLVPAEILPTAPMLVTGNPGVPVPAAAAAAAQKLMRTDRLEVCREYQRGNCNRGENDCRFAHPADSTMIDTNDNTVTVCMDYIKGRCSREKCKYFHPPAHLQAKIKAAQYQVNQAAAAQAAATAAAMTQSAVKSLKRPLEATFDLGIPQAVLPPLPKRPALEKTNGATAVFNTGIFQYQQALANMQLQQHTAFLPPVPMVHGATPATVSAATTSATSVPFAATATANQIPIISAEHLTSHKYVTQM

| Structure (SMILES) | Potency |
| --- | --- |
| NCCNc1ccc([N+](=O)[O-])c(Sc2nc3ccccc3[nH]2)c1 | inconclusive: 15.8 µM [quencher, side channel, partial curve] |
| Cc1ccc2c(c1)cc(CN(Cc1ccco1)C(=O)COc1ccccc1)c1nnnn12 | inactive |
| O=C(CCC(=O)c1cccs1)NCc1ccccc1 | inconclusive: 5.62 µM [quencher, side channel, full curve, poor fit] |
| CCN1CCN(c2cc(N3CCc4ccccc4C3)c(F)cc2[N+](=O)[O-])CC1 | inconclusive: 10 µM [quencher, side channel, partial curve] |
| N=C1c2ccccc2CN1NC(=O)c1cccc(S(=O)(=O)N2CCOCC2)c1 | inconclusive: 0.631 µM [fluorescent, side channel, single point] |
| Cc1ccc(/C=N/n2c(-c3cccnc3)n[nH]c2=S)o1 | inconclusive: 28.2 µM [quencher, side channel, partial curve] |
| Cc1cccc(Cn2c(C(C)(C)C)cc3cccnc32)c1 | inconclusive: 39.8 µM [quencher, side channel, single point] |
| O=[N+]([O-])c1cc(C(F)(F)F)ccc1Oc1cccnc1[N+](=O)[O-] | inconclusive: 31.6 µM [quencher, side channel, partial curve] |
| COc1ccc(OCC(=O)OC2CCN(C)CC2)cc1 | inactive |
| O=C(CCl)Nc1cccc(-c2cnc3ccccc3n2)c1 | inconclusive: 14.1 µM [quencher, side channel, partial curve] |
| COc1ccc(NS(=O)(=O)c2ccc(OC)c3ccccc23)cn1 | inconclusive: 39.8 µM [quencher, side channel, single point] |
| COCCNC(=O)CSc1nnc(-c2ccccc2)c(-c2ccccc2)n1 | inconclusive: 14.1 µM [quencher, partial curve] |
| CN1CCN(CCCNC(=O)CCCOc2cc(=O)n(C)c3ccccc23)CC1 | inactive |
| COC(=O)C(/C=N/OCc1ccc([N+](=O)[O-])cc1)NC(=O)c1ccccc1 (stereo unspecified) | inconclusive: 14.1 µM [quencher, side channel, partial curve, poor fit] |
| O=C(Nc1ccccc1Oc1ccccc1)c1cccc([N+](=O)[O-])c1 | inconclusive: 14.1 µM [quencher, partial curve] |
| O=[N+]([O-])c1cc(/C=N/n2c(-c3cccnc3)n[nH]c2=S)ccc1Cl | inconclusive: 25.1 µM [quencher, side channel, partial curve] |
| COc1ccc(N2CCN(C(=O)c3cccc(F)c3)CC2)c([N+](=O)[O-])c1 | inconclusive: 17.8 µM [quencher, side channel, partial curve] |
| O=C(c1ccccc1)c1cc(-c2ccccn2)c(N2CCOCC2)s1 | inconclusive: 10 µM [quencher, side channel, partial curve] |
| O=C(c1cccc([N+](=O)[O-])c1)N1CCN(Cc2ccc3c(c2)OCO3)CC1 | inconclusive: 14.1 µM [quencher, side channel, partial curve] |

| Structure (SMILES) | Potency |
| --- | --- |
| CS(=O)(=O)c1ccc(Sc2nc3ccccc3[nH]2)c([N+](=O)[O-])c1 | inconclusive: 10 µM [quencher, side channel, partial curve] |
| O=C(CSCCO)Nc1ccc([N+](=O)[O-])cc1 | inconclusive: 25.1 µM [quencher, side channel, partial curve] |
| O=[N+]([O-])c1ccc(Cl)c2c1C1C=CCC1C(c1ccccn1)N2 (stereo unspecified) | inconclusive: 31.6 µM [quencher, side channel, single point] |
| Cc1ccc2[nH]c(C(=O)O)c(NC(=O)c3ccccc3[N+](=O)[O-])c2c1 | inconclusive: 11.2 µM [quencher, side channel, partial curve] |
| COc1ccc(OCCNC(=O)/C=C/c2ccc([N+](=O)[O-])cc2)cc1 | inconclusive: 17.8 µM [quencher, side channel, partial curve] |
| CC(C(=O)NC1CCCC1)N(C(=O)c1snc(C(N)=O)c1N)c1ccc2c(c1)OCCO2 (stereo unspecified) | inconclusive: 31.6 µM [quencher, side channel, single point] |
| COc1ccc([N+](=O)[O-])cc1C(=O)C(=O)c1ccccc1 | inconclusive: 12.6 µM [quencher, side channel, partial curve] |
| Cc1nc2ccccc2cc1C(=O)N/N=C/c1cccc([N+](=O)[O-])c1 | inconclusive: 11.2 µM [quencher, side channel, partial curve] |
| COCCNC(=O)c1cnn2c1NC(c1ccco1)CC2C(F)(F)F (stereo unspecified) | inconclusive: 28.2 µM [quencher, side channel, single point] |
| Cc1cc(C)c2nc(SC(C)C(=O)NCC(=O)Nc3ccc(F)c(F)c3F)cc(C)c2c1 (stereo unspecified) | inconclusive: 0.1 µM [fluorescent, side channel, partial curve, poor fit] |
| Cc1cc(=O)cc(C)n1-c1ccc(F)cc1F | inconclusive: 3.55 µM [fluorescent, side channel, single point] |
| CCc1ccccc1NC(=O)c1ccc([N+](=O)[O-])s1 | inconclusive: 14.1 µM [quencher, side channel, partial curve] |
| CCOc1ccc(/C(O)=C2\C(=O)C(=O)N(CCN(C)C)C2c2cccc(OC)c2OC)cc1Cl (stereo unspecified) | inactive |
| COc1ccc2c(c1)CCc1cc(C(=O)O)sc1-2 | inactive |
| CC(=O)c1cc2c(cc1N/C(=N/S(=O)(=O)c1ccc(C)cc1)c1ccccc1)OCO2 | inconclusive: 35.5 µM [fluorescent, side channel, partial curve] |
| O=C(c1ccc(Cl)cc1[N+](=O)[O-])N1CCN(c2ccccn2)CC1 | inconclusive: 17.8 µM [quencher, side channel, partial curve] |
| COc1ccc(N2C(=O)C(Cl)=C(Nc3c(C)n(C)n(-c4ccccc4)c3=O)C2=O)cc1 | inconclusive: 31.6 µM [quencher, side channel, partial curve, poor fit] |
| O=C(Nc1cc(Br)ccc1O)C1CC(c2c(F)cccc2Cl)=NO1 (stereo unspecified) | inactive |
| CC(/C=N/NC(=O)c1nnn(-c2nonc2N)c1CN(C)C)=C\c1ccco1 | inconclusive: 12.6 µM [quencher, side channel, partial curve] |

| Structure (SMILES) | Potency |
| --- | --- |
| COc1ccc(C2C(C#N)=C(N)OC3=C2C(=O)CCC3)cc1OC (stereo unspecified) | inconclusive: 6.31 µM [quencher, side channel, full curve, poor fit] |
| O=C(N/C(=C/c1cccc([N+](=O)[O-])c1)C(=O)N1CCOCC1)c1ccccc1Br | inconclusive: 25.1 µM [quencher, single point] |
| Cc1ccccc1NC(=O)c1nn(C)c(C(=O)Nc2ccccc2C)c1[N+](=O)[O-] | inconclusive: 14.1 µM [quencher, side channel, partial curve, poor fit] |
| CN(C)c1ccc(NC(=O)c2sc(SCC(=O)Nc3nccs3)nc2N)cc1 | inconclusive: 15.8 µM [quencher, side channel, partial curve] |
| NC(=O)CSc1ncc(-c2ccc([N+](=O)[O-])cc2)[nH]1 | inconclusive: 14.1 µM [quencher, partial curve] |
| Cc1cc([N+](=O)[O-])ccc1NC(=O)c1cccc(NC(=O)C(C)C)c1 | inconclusive: 20 µM [quencher, side channel, partial curve] |
| CCOc1cc(/C=C\[N+](=O)[O-])ccc1OCC(=O)N1CCOCC1 | inactive |
| CN1C(C(=O)Nc2ccc(F)cc2F)=CC(c2ccco2)=NS1(=O)=O | inconclusive: 14.1 µM [quencher, side channel, partial curve] |
| O=C(NNc1nc2ccc(Cl)cc2s1)c1cc(-c2cccs2)nc2ccccc12 | inactive |
| COc1ccc(N)c2c1C(=O)c1ccccc1C2=O | inconclusive: 31.6 µM [quencher, side channel, partial curve] |
| CCOC(=O)C1=C(CSc2nc(-c3ccncc3)ccc2C#N)OC(N)=C(C#N)C1c1ccc(OC)cc1 (stereo unspecified) | inconclusive: 25.1 µM [quencher, side channel, partial curve] |
| Cc1ccc(-n2nc(C(=O)NN)c(C)c(C#N)c2=O)cc1Cl | inconclusive: 14.1 µM [quencher, side channel, partial curve] |
| O=[N+]([O-])c1cc([N+](=O)[O-])c(Oc2cccnc2Br)cc1NN1CCCCC1 | inconclusive: 11.2 µM [quencher, side channel, partial curve] |
| CC1CCN(CCNC(=O)C2CCCN(S(=O)(=O)c3cccc4nonc34)C2)CC1 (stereo unspecified) | inconclusive: 12.6 µM [quencher, side channel, partial curve] |
| NC(=O)c1ccc(N=C2C(=O)Nc3ccc([N+](=O)[O-])cc32)cc1 | inconclusive: 22.4 µM [quencher, side channel, partial curve] |
| O=C1CCCC(O)=C1N=Nc1cccc(C(=O)O)c1 | inconclusive: 7.08 µM [quencher, side channel, partial curve] |
| Cc1cccc(NC(=O)c2ccc(C(=O)c3ccccc3)o2)c1 | inconclusive: 28.2 µM [quencher, side channel, single point] |
| C=CCc1ccc(OCCCCN2CCC(C)CC2)c(OC)c1 | inconclusive: 1.58 µM [fluorescent, side channel, full curve] |
